Reference: PubChem BioAssay AID662 (National Center for Advancing Translational Sciences (NCATS), 2007)
Several values for one entry are separate records, joined by “and”; a condition that tells them apart may be missing. Identical values can stand only once. The campaign covered roughly 71,000 compounds. About 1,800 (2.5%) were called active. This list was built around the results that the source calls inconclusive (neither active nor inactive); the mix of calls is not that of the screen. Calls follow the shape of the dose curve; as a rule, active = well fitted activation curve with a large enough effect in the signal ratio, with a control signal flat (not every such curve was filed as active); inconclusive = small, poorly fitted or top-dose-only effect, or effect the other way, or a change in a side signal; inactive = flat fitted curve, though single readings scatter; the % refers to the signal ratio. A potency beside an inconclusive call is a rough fit, not a confirmed value.

experiment: Cell signaling CRE-BLA (Fsk stim); settings: CHO CRE-bla reporter (cAMP response element driving beta-lactamase), forskolin EC10, beta-lactamase ratio; activity change, negative = inhibition: at 38.2 µM (top of the series) unless noted; as to activity change, negative = inhibition: % of control where 0% means no effect
Method in brief: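 The 460nm/530nm emission ratio after CCF4 loading defined %Activity, from which AC50 values were obtained. CRE-bla CHO cells received compound dilution series together with an EC10 level of NKH 477 for 3 hours at 37 degrees Celsius.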
Potency is read from the fitted curve at half-maximal effect; tags tell the direction and shape of the fitted curve.

Structure (SMILES)	activity change, negative = inhibition	Potency
COc1cccc2c1C(=O)c1c(O)c3c(c(O)c1C2=O)C[C@@](O)(C(C)=O)C[C@@H]3O[C@H]1C[C@H](N)[C@H](O)[C@H](C)O1	inconclusive: -23.5% and inconclusive: -39.5%	
O=C(COC(=O)c1cc(=O)[nH]c2ccccc12)NC(=O)NC1CCCCC1	inconclusive: -0.822%	
COc1ccc(C(=O)Nc2ccccc2C(N)=O)cc1	inconclusive: -0.00222%	
Cc1nn(-c2ccc(Cl)cc2)c2sc(C(=O)N3CCN(C(=O)c4ccco4)CC3)cc12	inactive	
CCC(=O)Nc1nonc1-c1nc2ccccc2n1Cc1ccc(Cl)c(Cl)c1		inconclusive: 1.26 µM [rising, partial curve]
CSc1nc(-c2ccco2)cc(-c2ccccc2)c1C#N		inconclusive: 7.94 µM [rising, partial curve]
CNc1nc(-c2ccccc2C(F)(F)F)nc2ccccc12	inconclusive: 14.5%	
Cc1occc1-c1nnc(SCC(=O)NCC2CCCO2)n1C (stereo unspecified)	inconclusive: 16%	
O=C(Nn1cnnc1)c1cc2cc(Br)ccc2oc1=O	inconclusive: -0.369%	
Cc1nc2cc(C(=O)NCCN3CCOCC3)ccc2n1-c1ccc(F)cc1F		inconclusive: 12.6 µM [rising, single point]
Cc1cccc(Cl)c1NC[C@H](O)CN1CCN(C)CC1	inconclusive: 14.5% [at 7.6 µM]	
CCOC(=O)C1=C(C)NC(SCc2cc(=O)[nH][nH]2)=C(C#N)C1c1cccs1 (stereo unspecified)	inconclusive: 13.3% [cytotoxic]	
COc1ccc2[nH]c(=O)c(CN(CCO)C(=O)c3ccccc3F)cc2c1	inconclusive: 10.7%	
O=c1oc(-c2ccccc2)nc2c1cnn2-c1ccccc1	inactive	
COc1ccc(OCc2nnc3n2N=C(c2ccc(Br)cc2)CS3)cc1		inconclusive: 2 µM [rising, full curve]
CC(C)c1ccccc1NC(=O)CCCC(=O)O	inconclusive: -4.89% [at 7.6 µM]	
CCOC(=O)c1c(C)oc2ccc(OCC(=O)N(CC)CC)cc12		inconclusive: 12.6 µM [rising, partial curve]
COc1ccc(C(=O)N2CCC3(CC2)CCN(c2ncccn2)CC3)cc1	inactive	
COc1ccc2c(C)c(Cl)c(=O)oc2c1		inconclusive: 10 µM [rising, single point]
COc1ccc(S(=O)(=O)N2CCC(C(=O)c3ccc4c(c3)OCCO4)CC2)cc1	inconclusive: 8.32%	
CS(=O)(=O)NCCSc1nnnn1-c1ccccc1	inactive	

Structure (SMILES)	activity change, negative = inhibition	Potency
CCCn1cnc2c(SCc3ccc(Cl)cc3)nc(N)nc21		active: 3.16 µM
COc1ccc(NS(=O)(=O)c2ccc(I)cc2)cc1N1CCN(C)CC1	inconclusive: -22.6%	
O=C1CN(C(=O)COC(=O)c2ccccc2NC(=O)c2ccco2)c2ccccc2N1		inconclusive: 12.6 µM [rising, single point]
Cc1nonc1NC(=O)OCCN1CCOC1=O	inactive	
COc1ccc(-n2c(=O)c(-c3cccs3)nc3cnc(Nc4ccccc4)nc32)cc1	inconclusive: -5.68% [fluorescent]	
Cc1cc(C(=O)Nc2ccccc2C(F)(F)F)no1	inactive	
CNc1nc(-c2cccc(NS(C)(=O)=O)c2)nc2ccccc12		inconclusive: 12.6 µM [rising, partial curve]
O=C(NC1CCCCC1)N(Cc1nc2ccccc2c(=O)[nH]1)C1CCCC1	inactive	
COc1cc(NC(=O)c2cccc3c2C(=O)N(Cc2cccnc2)C3)cc(OC)c1OC		active: 2 µM
O=C(O)CN(CC(=O)O)c1ccccc1	inactive: -10.9% [at 7.6 µM]	
Nc1nc2c3ccccc3nc(C3CC3)n2n1	inconclusive: 143%	
CCCOc1cccc(C(=O)Nc2cccnc2)c1	inactive: 16.1% [at 7.6 µM]	
CCc1cccc(N(C)C(N)=Nc2cccc3ccccc23)c1	inactive	
COCCN(CC(=O)NCc1ccccc1)C(=O)CCC(=O)Nc1ccccn1	inconclusive: -4.29%	
CC(=O)NS(=O)(=O)c1ccc(N)cc1	inactive	
CC(C#N)On1c(SC(C)C#N)nc2ccccc2c1=O (stereo unspecified)		inconclusive: 10 µM [rising, partial curve]
Cc1cc(C)c(S(=O)(=O)Nc2ccc[nH]c2=O)c(C)c1	inactive	
Cc1cc(C)c2c(c1)-c1cc(C)nn1C(c1ccc3c(c1)OCO3)N2 (stereo unspecified)	inconclusive: 27.9%	
CS(=O)(=O)N1CCC2(CCCN(c3ccncc3)C2)CC1	inactive	
CC(=O)N1CCC2(CCCN(c3ccccc3)C2)CC1	inactive	
O=C(Nc1nc(-c2nc3ccccc3s2)cs1)c1ccc(S(=O)(=O)N2CCOCC2)cc1	inconclusive: -15.3%	

Structure (SMILES)	activity change, negative = inhibition	Potency
CCOC(=O)c1c(C)[nH]c(C)c1C(=O)Cn1nnc(-c2ccccc2C)n1		inconclusive: 12.6 µM [rising, partial curve]
CCCNC(=O)Cc1ncn[nH]1	inactive	
CC(=O)c1ccc(Nc2nc(C)nc3c2oc2ccccc23)cc1		active: 2 µM
COCCN1C=C(C(=O)OC)C(c2cc3c(cc2Br)OCO3)C(C(=O)OC)=C1	inconclusive: 26.6%	
CC(C)N(C(=O)CSc1nnnn1C1CCCC1)C(C)C		inconclusive: 3.16 µM [falling, single point]
CCOC(=O)c1cc2c(ccn2C)n1CC(=O)N1CCN(c2ccc(F)cc2)CC1	inconclusive: -25.8%	
COc1ccc(-c2nc3cnc(N(C)C)nc3n(-c3ccccc3)c2=O)cc1		inconclusive: 2 µM [rising, partial curve]
CC(=O)Oc1ccc(CCC(C)OC(C)=O)cc1 (stereo unspecified)	inactive	
COC(=O)[C@@]1(Cc2ccc(OC)cc2)[C@H]2c3cc(C(=O)N(C)C)n(Cc4cc(C)n(C)n4)c3C[C@H]2CN1C(=O)c1ccccc1		inconclusive: 12.6 µM [rising, partial curve]
Cc1nc(NCc2ccccc2)[nH]c(=O)c1CCC(C)C	inactive	
CC(=O)C1=C(C)NC(SCC(=O)c2ccc(C)cc2)=C(C#N)C1c1ccco1 (stereo unspecified)	inconclusive: 29.7%	
O=C(O)/C=C\C(=O)Nc1ccccn1	inactive: 13.3% [at 7.6 µM]	
Cc1noc(C)c1C(=O)N1CCC[C@@]2(CCN(c3cccc(-c4ccccc4)c3)C2)C1	inconclusive: 8.24%	
Cc1cccc(N2CCN(C(=O)c3cc4c(=O)n(C)c5ccccc5c4n3C)CC2C)c1 (stereo unspecified)	inconclusive: -26.4%	
COc1ccccc1-c1nnc2sc(-c3cnccn3)nn12		inconclusive: 10 µM [rising, partial curve]
CCC(C)N1C(=O)C2C(C(=O)Nc3cccc(OC)c3)C3C=CC2(O3)C1C(=O)NC1CCCCC1C (stereo unspecified)	inactive	
Cc1noc(C)c1CSc1nc2sc(C)c(C)c2c(=O)n1C1CCCC1		active: 2 µM
Cc1c(NS(=O)(=O)c2ccc3c(c2)c(=O)n(C)c(=O)n3C)c(=O)n(-c2ccccc2)n1C	inactive	
COc1ccc(S(=O)(=O)N(CC(=O)Nc2ccc3c(c2)OCO3)c2ccccc2OC)cc1	inconclusive: 3.71% [cytotoxic]	
CCOc1ccc(-c2[nH]nc3c2C(c2ccc4c(c2)OCO4)C(C#N)=C(N)O3)cc1OC (stereo unspecified)		active: 2.51 µM
Cc1cccnc1-n1c(CCN2C(=O)c3ccccc3C2=O)nc2ccccc2c1=O		inconclusive: 10 µM [rising, single point]

Structure (SMILES)	activity change, negative = inhibition	Potency
O=C(C1CCC1)N1CCc2cc(S(=O)(=O)NC3CCCC3)ccc21		inconclusive: 7.94 µM [rising, partial curve, poor fit]
Cc1ccc(NC(=O)C2CCCN(S(=O)(=O)c3c(C)noc3/C=C/N(C)C)C2)cc1F (stereo unspecified)		inconclusive: 25.1 µM [rising, single point]
Cc1nn(C)cc1CNC(=O)c1cnn2c(C(F)F)cc(C3CC3)nc12		active: 3.98 µM
CCC1(C)Cc2c(sc3nc4n(c(=O)c23)CCCS4)CO1 (stereo unspecified)	inconclusive: 50.9%	
COc1ccccc1N1CCN(C(=O)CSc2ccc3c(C)cc(C)nc3n2)CC1	inconclusive: 20.6%	
COC(=O)[C@@]1(Cc2ccc(F)cc2)[C@H]2c3cc(C(=O)N4CCCC4)n(Cc4ccc(C)c(F)c4F)c3C[C@H]2CN1C(=O)c1ccccc1	inactive	
COCCn1c(=O)cnc2cnc(Nc3ccccc3)nc21		inconclusive: 2 µM [falling, full curve]
O=C(Cn1c(C(=O)N2CCc3ccccc3C2)cc2sccc21)c1ccccc1	inconclusive: 5.49%	
Nc1ccccc1NC(=O)c1ccccc1	inconclusive: 10.8%	
Cn1cccc1C(=O)Nc1nc(-c2ccccn2)cs1	inactive	
Cn1c(=N)c(S(=O)(=O)c2ccccc2)cc2c(=O)n3ccccc3nc21		active: 2 µM
COc1ccc(C(=O)N2CCN(C(=O)c3cc(OC)c(OC)c(OC)c3)CC2)cc1	inactive	
CC(O)c1c(OCc2ccccc2)ncnc1OCc1ccccc1 (stereo unspecified)	inactive	
COc1cccc(-c2cncnc2NCc2cnc(C)cn2)c1	inactive	
Cc1c(CN2CCCCC2C)c(=O)n(-c2ccccc2)n1C (stereo unspecified)		inconclusive: 0.02 µM [rising, full curve, poor fit]
CCOC(=O)N1CCC(NC(=O)CS(=O)Cc2nc(-c3ccc(OC)c(OC)c3)oc2C)CC1 (stereo unspecified)		inconclusive: 5.01 µM [rising, full curve]
COc1cc(COc2cc(N)c(Cl)cc2C(=O)CCC2CCN(CCNS(C)(=O)=O)CC2)cc(OC)c1	inconclusive: 19.7%	
NC1(C(=O)O)C[C@@H](C(=O)O)[C@H](C(=O)O)C1		inconclusive: 12.6 µM [falling, single point]
